SMILES strings stand for the structures. The campaign covered roughly 310,000 compounds. About 14,000 (4.5%) showed an effect of 50% or more. The effect is printed as a negative number. This is one part of the list.
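Note: peak tail current of the secondary pulse compared with the same well before compound.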

Chain of human ether-à-go-go-related gene (hERG) potassium channel (Q12809 whole entry, looked up): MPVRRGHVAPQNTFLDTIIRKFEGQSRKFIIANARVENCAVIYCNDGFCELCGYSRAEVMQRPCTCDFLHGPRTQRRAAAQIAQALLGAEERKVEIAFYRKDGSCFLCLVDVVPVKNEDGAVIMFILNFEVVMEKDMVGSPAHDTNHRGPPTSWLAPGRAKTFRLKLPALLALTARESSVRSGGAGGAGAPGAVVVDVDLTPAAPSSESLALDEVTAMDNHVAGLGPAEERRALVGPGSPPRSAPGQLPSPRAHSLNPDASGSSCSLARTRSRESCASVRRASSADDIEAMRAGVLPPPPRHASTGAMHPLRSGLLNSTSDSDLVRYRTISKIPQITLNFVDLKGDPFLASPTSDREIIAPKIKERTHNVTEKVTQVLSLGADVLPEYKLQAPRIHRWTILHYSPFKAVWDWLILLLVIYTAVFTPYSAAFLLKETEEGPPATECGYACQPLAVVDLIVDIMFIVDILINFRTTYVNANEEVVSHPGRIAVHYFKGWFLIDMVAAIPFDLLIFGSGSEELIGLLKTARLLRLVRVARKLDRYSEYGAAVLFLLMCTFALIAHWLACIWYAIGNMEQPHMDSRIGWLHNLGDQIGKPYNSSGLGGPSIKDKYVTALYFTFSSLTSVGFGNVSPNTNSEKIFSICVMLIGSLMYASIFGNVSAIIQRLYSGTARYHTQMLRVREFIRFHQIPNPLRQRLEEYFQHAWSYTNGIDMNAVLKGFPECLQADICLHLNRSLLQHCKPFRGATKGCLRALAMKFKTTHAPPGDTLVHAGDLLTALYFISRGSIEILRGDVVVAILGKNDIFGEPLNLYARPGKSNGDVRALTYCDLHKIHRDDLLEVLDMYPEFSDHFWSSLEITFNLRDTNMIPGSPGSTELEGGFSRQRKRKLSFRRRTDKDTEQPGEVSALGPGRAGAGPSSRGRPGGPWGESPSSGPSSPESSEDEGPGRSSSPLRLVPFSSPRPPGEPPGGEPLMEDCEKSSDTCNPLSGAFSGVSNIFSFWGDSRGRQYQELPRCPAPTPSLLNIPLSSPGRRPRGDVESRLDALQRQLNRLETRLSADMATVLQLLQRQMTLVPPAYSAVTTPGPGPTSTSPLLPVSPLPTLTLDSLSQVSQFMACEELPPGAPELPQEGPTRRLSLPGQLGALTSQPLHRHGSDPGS

The experiment addresses human ether-à-go-go-related gene (hERG) potassium channel (human, UniProt Q12809). Briefly: primary screen, population patch clamp on CHO cells stably expressing hERG.
`O=c1[nH]c(=O)n(CCc2ccccc2)c(O)c1C=NC1CC1`: the “hERG current change (%, negative = inhibition) at 10uM” value came out at 3.17%.
On to `CC1CCCN(CCCNC(=O)CN2C(=O)COc3ccccc32)C1` (stereo not drawn), for which the “hERG current change (%, negative = inhibition) at 10uM” value is given as -4.59%.
With `COc1cccc(NC(=O)CN(C)C(=O)c2cc(C)oc2C)c1`, the “hERG current change (%, negative = inhibition) at 10uM” value turned out to be 6.56%.
The same measure for `COC(=O)[C@@]12CCCN1[C@H](c1ccc(-c3cccc(Cl)c3)cc1)[C@H]1C(=O)N(C)C(=O)[C@H]12.O=C(O)C(F)(F)F`: -29.6%; for `COc1ccc(C(=O)COC(=O)CN2C(=O)C3C4C=CC(C4)C3C2=O)cc1` (stereo not drawn): -2.83%.
The same measure for `CC(=O)NC12CC3CC(C1)CC(C(=O)Nc1nccs1)(C3)C2`: 6.58%; for `O=C(N/N=C/c1ccccc1)NC1CCCCC1`: 1.81%.
The same measure for `O=S(=O)(NC1CCCCC1)c1cccc(-c2nnc(-c3ccccc3)o2)c1`: -36.4%.
For `CCSc1nnc(-c2cc(Br)ccc2N)c(=O)[nH]1`, the “hERG current change (%, negative = inhibition) at 10uM” value is 21.4%.
The same measure for `COC(=O)c1nn(-c2ccc(C)cc2)c2nnc(Cc3ccccc3)c(=O)n12`: 9.19%; for `CC1(C(=O)OCC(=O)c2c[nH]c3ccccc23)CC1(Cl)Cl` (stereo not drawn): 22%.
The same measure for `CC1=NN(c2ccc(F)cc2)C(=O)C1C(c1cccc(O)c1)c1c(C)[nH]n(-c2ccc(F)cc2)c1=O` (stereo not drawn): 9.02%.
The same measure for `COCCn1nnnc1SCC(=O)N1CCCCC1`: 25.2%; for `Cc1ccc2c(c1)C1CN(C)CCC1N2S(=O)(=O)c1ccc(Oc2ccc([N+](=O)[O-])cc2)cc1` (stereo not drawn): -21.3%.
`O=C(CCS(=O)(=O)c1cccc2nonc12)NC1CCCCCC1`: the “hERG current change (%, negative = inhibition) at 10uM” value is listed as -2.03%.
The same measure for `O=C(COC(=O)c1ccc2c(c1)OCO2)Nc1cccc(F)c1`: 12.7%; for `CC(=O)c1ccc(NC(=O)C(C)Sc2n[nH]c(-c3cccnc3)n2)cc1` (stereo not drawn): 15.5%; for `CC(C)N1CCN(Cc2ccc(C#CC(C)(C)O)cc2)CC1CCO` (stereo not drawn): 13.4%.
Take `COc1ccc(-c2c(C)sc(NC(=O)c3ccnn3C)c2C#N)cc1`: the “hERG current change (%, negative = inhibition) at 10uM” value is -11%.
The same measure for `COc1ccc2ccc(=O)oc2c1CC(O)C(C)(C)O` (stereo not drawn): 1.16%.
The same measure for `Nc1ccccc1OCCOCCOc1ccccc1N`: 8.54%.
The same measure for `COCC(C)NC(=O)CSc1nc2cc(S(=O)(=O)N3CCCCC3)ccc2o1` (stereo not drawn): -4.68%; for `NC(=O)CC(NC(=O)c1ccc(Br)cc1)c1ccc(N2CCN(c3ccccc3)CC2)c([N+](=O)[O-])c1` (stereo not drawn): -7.04%.
For `Cn1c(=O)c(C(=O)NNC(=O)c2ccc(Br)cc2)c(O)c2ccccc21`, the “hERG current change (%, negative = inhibition) at 10uM” value came to 12.2%.
Take `COC(=O)c1ccc(NC(=O)CSc2nnc(-c3ccncc3)n2C)cc1`: the “hERG current change (%, negative = inhibition) at 10uM” value is recorded as -9.59%.
Take `CCN1CCN(C(=O)CCc2nc3ccccc3n2-c2ccccc2)CC1`: the “hERG current change (%, negative = inhibition) at 10uM” value was -23.3%.
The same measure for `C=CCN1C[C@@H](C)N(C(c2ccc(C(=O)N(CC)CC)cc2)c2cccc(OC)c2)C[C@@H]1C` (stereo partly drawn): -65.3%.
As for `O=C(N/N=C/c1cc2c(cc1[N+](=O)[O-])OCO2)c1ccc2c(c1)OCO2`, the “hERG current change (%, negative = inhibition) at 10uM” value is given as 22.1%.
The same measure for `COc1ccc(Cl)cc1C(=O)NNC(=O)CSc1nnc2ccccn12`: 5.24%; for `CCn1c(SCC(=O)N/N=C(\C)c2ccncc2)nnc1-c1ccc(C)cc1`: -20.6%.
The same measure for `O=C(CN1CCN(c2ccc(O)cc2)CC1)N(C1CC1)C1CCS(=O)(=O)C1` (stereo not drawn): 12%; for `Cl.OC(c1ccccc1)(c1ccc(F)cc1)C(c1ccccc1)N1CCOCC1` (stereo not drawn): 16.8%; for `O=C1C2C3CCC(C3)C2C(=O)N1Cc1ccccc1` (stereo not drawn): -1.12%.
The same measure for `Cc1cc(C(=O)NNC(=O)Nc2ccc(Cl)cc2)no1`: 14.3%; for `Cc1c(NC(=O)c2nn3c(C(F)(F)F)cc(-c4ccccc4)nc3c2Cl)c(=O)n(-c2ccccc2)n1C`: -1.17%; for `CCCCNC(=O)c1onc(CSc2ccc(F)c(F)c2)c1C(=O)NCCCC`: -4.61%.
For `O=C(NCC(c1ccco1)N1CCCC1)c1sc2ccccc2c1Cl` (stereo not drawn), the “hERG current change (%, negative = inhibition) at 10uM” value was -13.3%.
For `CSCCC(NS(=O)(=O)c1ccc(C)cc1)C(=O)N1CCN(S(=O)(=O)c2ccc(F)cc2)CC1` (stereo not drawn), the “hERG current change (%, negative = inhibition) at 10uM” value is recorded as -32.2%.
As to `CC(C)Cc1ccc(C(C)C(N)=NCCc2ccccc2)cc1.Cl` (stereo not drawn), the “hERG current change (%, negative = inhibition) at 10uM” value is listed as -67.5%.
The same measure for `C=CCn1c(SCc2nnc(-c3ccccc3)o2)nnc1C(O)c1ccccc1` (stereo not drawn): -1.3%; for `COCCN(C(=S)Nc1cccc(OC)c1)C1CCN(C(C)C)CC1`: -16.7%.
The same measure for `Cc1cc(C)c2oc(C(=O)NCCc3ccc(S(N)(=O)=O)cc3)cc(=O)c2c1`: 19.3%.
The same measure for `COc1ccc(C(=O)COC(=O)/C=C/c2ccco2)cc1F`: -22.6%.
For the compound `Cc1sc2ncnc(N3CCN(CCOc4ccc(Cl)cc4)CC3)c2c1C`, the “hERG current change (%, negative = inhibition) at 10uM” value was -9.02%.
`CCOC(=O)C1CCN(S(=O)(=O)c2ccc(C(C)=O)cc2)CC1`: the “hERG current change (%, negative = inhibition) at 10uM” value was -23.9%.
The same measure for `OC(Cc1nc2ccccc2[nH]1)c1ccccc1Cl` (stereo not drawn): -4%; for `CC(NO)C(C)(C)NO.Cl` (stereo not drawn): 14.8%; for `CSCCc1nc(SCC(=O)Nc2nnc(C)s2)[nH]c1C`: 16.4%.
The same measure for `COc1ccc(-c2c(C)nn3c(N4CCOCC4)cc(C)nc23)cc1OC`: 6.87%; for `S=C(NCc1ccc(Cl)cc1)NCc1ccccn1`: 8.36%; for `CCOC(=O)CN1C(=O)Nc2ccc(Br)cc2C1c1ccccc1` (stereo not drawn): -56.7%.
The same measure for `CC(C)N(Cc1ccccc1)C(=S)Nc1cccnc1`: 19.4%.
Consider `COc1ccc(C2CC(c3cc(OC)ccc3OC)n3nnnc3N2)cc1` (stereo not drawn), for which the “hERG current change (%, negative = inhibition) at 10uM” value is -7.19%.
The same measure for `COc1cc(NS(=O)(=O)c2ccc(NS(=O)(=O)c3ccc(C)cc3)cc2)nc(OC)n1`: 25.4%.
The same measure for `CC(C)(C)C(=O)COC(=O)CNC(=O)c1ccc(Oc2ccccc2)cc1`: -6.73%.
The same measure for `COc1ccc(OC)c(NC(=O)CSc2nnc(CNC(=O)c3ccco3)o2)c1`: 8.54%; for `CC(C)[C@H](NS(=O)(=O)c1ccc2c(c1)OCCO2)C(=O)OCC(=O)Nc1ccccc1`: -12%; for `CCCc1cc(=O)[nH]c(SCc2ccc(Cl)cc2)n1`: 6.26%.
For `Cc1cccc(Nc2ncnc3ccc(Br)cc23)c1`, the “hERG current change (%, negative = inhibition) at 10uM” value was -33.1%.
For `CCOC(=O)C1CCN(C(=O)c2cc3c(=O)n4ccccc4nc3n2C)CC1`, the “hERG current change (%, negative = inhibition) at 10uM” value is -7.87%.
The same measure for `O=C(COC(=O)/C=C/c1ccccc1)Nc1cc(C(F)(F)F)ccc1N1CCOCC1`: 6.85%.
Regarding `Cc1cccc(NC(=O)Cn2c(=O)n(CC3CCCO3)c(=O)c3ccccc32)c1` (stereo not drawn), the “hERG current change (%, negative = inhibition) at 10uM” value is 97.9%.
The same measure for `CCN(CCCNC(=O)CNC(=O)c1nn(-c2ccc(OC)c(OC)c2)c(=O)c2ccccc12)c1ccccc1`: -34.3%.
The same measure for `O=C(c1ccco1)N1CCN(c2nc3ccsc3c(=O)s2)CC1`: -79%; for `O=C(CN1CCCCC1)Nc1ccccc1Cl`: 21.1%.
The same measure for `COc1ccc2[nH]c(C(=O)NCCc3ccccc3)cc2c1`: 19.6%; for `COC(=O)CCC(=O)Nc1cccc(Cl)c1`: -1.98%; for `Cc1nnsc1SCCNC(=O)c1c(F)cccc1F`: 20%.
`CC1CCCCC1N(C)C1CCN(C(=O)CNC(=O)/C=C/c2cccc(Cl)c2)CC1` (stereo not drawn): the “hERG current change (%, negative = inhibition) at 10uM” value was -73.6%.
Regarding `O=C(NCc1ccccc1Cl)c1cccc(NC2=NC3CS(=O)(=O)CC3S2)c1` (stereo not drawn), the “hERG current change (%, negative = inhibition) at 10uM” value stood at 13.1%.
The same measure for `CC(=O)c1cccc(NC(=O)NCc2cccnc2)c1`: 12.2%; for `CC(C)N(NC(=O)c1cccc2ccccc12)C(C)C`: -0.506%.
Regarding `CN1C2CCC1/C(=C/c1cccn1C)C(=O)/C2=C\c1cccn1C`, the “hERG current change (%, negative = inhibition) at 10uM” value was determined as 1.43%.
The same measure for `CCCCN(CC)C(=O)Cc1ccc(Br)cc1`: -1.03%; for `CN(C)c1cccc(NC(=O)C2(C)CC2(Cl)Cl)c1` (stereo not drawn): -14%; for `CC12CCC(C(=O)NCCc3ccccc3)(OC1=O)C2(C)C` (stereo not drawn): 9.83%.
The same measure for `COc1ccccc1CN1CCN(Cc2nc(-c3cccs3)no2)CC1`: -42.8%.
The same measure for `Cc1ccc(S(=O)(=O)N/N=C/c2ccc(OCC(=O)NC(C)C)cc2)cc1`: -24.7%; for `CCOc1ccc(C2=Nn3c(nnc3-c3ccccc3)SC2)cc1Cl`: 17%.
Regarding `O=C(NCc1cccc2[nH]ccc12)C1CCC(=O)N(CCc2ccc(Cl)cc2)C1` (stereo not drawn), the “hERG current change (%, negative = inhibition) at 10uM” value was -30.8%.
For the compound `C=CCn1c(O)c(/C=N/N2CCCCC2)c(=O)[nH]c1=O`, the “hERG current change (%, negative = inhibition) at 10uM” value was -44.2%.
The same measure for `O=C(NC1=NCCS1)c1ccc(N2CCCC2=O)cc1`: 22.3%.
The same measure for `O=C(CSc1ccc(F)cc1)N1CCC(c2nc3ccccc3s2)CC1`: -67.1%; for `COc1cc(C(=O)Nc2nc(C)cc(C)n2)cc(OC)c1OC`: 9.87%; for `CCNC(=O)CSc1nnc(-c2ccc(OC)cc2)n1CC(C)C`: -3.51%.
As to `Cc1cccc(C(C)C)c1NC(=O)CSc1nncn1C`, the “hERG current change (%, negative = inhibition) at 10uM” value is given as 3.98%.
The same measure for `CCN1CCC(n2nccc2NC(=O)c2ccccc2Cl)CC1`: -21%.
The same measure for `CCc1nc(SCC(=O)O)c2c3c(sc2n1)COC(C)(C)C3`: 23.2%; for `Cl.OCCN1CCN(CCSc2ccccc2)CC1`: -8.59%.
For the compound `Cc1[nH]c(=O)[nH]c(=O)c1NS(=O)(=O)c1ccc2c(c1)CCCC2`, the “hERG current change (%, negative = inhibition) at 10uM” value worked out at 13.8%.

These data come from PMC4336329 (PLoS ONE, 2015).
